These results are taken from the antibiotic and cytotoxicity screens of Wong et al. (2023).

One test relates to HSkMC. Nature of the test: cytotoxicity call (relative viability < 0.9). Conditions: 10 µM.
A further test concerns HepG2. The experiment in a line: cytotoxicity call (relative viability < 0.9). Conditions: 10 µM.
For the next test, the system named is S. aureus RN4220. The experiment in a line: growth inhibition call (relative growth <= 0.2). Conditions: 50 µM.

This is one part of the list.

As for `COc1ccc(S(=O)(=O)N2C[C@@H](O)COC[C@@H]3O[C@H](CC(=O)N[C@H]4CCN(Cc5ccccc5)C4)CC[C@H]32)cc1`, the cytotoxicity call in the test on HSkMC and in the test with HepG2 was “inactive” each time. In the test on S. aureus RN4220, the growth inhibition call is “inactive”.

`Cc1noc(C)c1S(=O)(=O)N(C)C[C@@H]1Oc2ccc(NS(C)(=O)=O)cc2CC(=O)N([C@H](C)CO)C[C@H]1C`: the cytotoxicity call with HSkMC and in the test on HepG2 was “inactive” throughout. For the same compound, the growth inhibition call in the test on S. aureus RN4220 is “inactive”.

Take `CC(=O)N=c1sc(S(N)(=O)=O)nn1C`: the cytotoxicity call in the test with HSkMC and with HepG2 was “inactive” in each case. The growth inhibition call in the test with S. aureus RN4220 was “inactive”.

As for `COc1ccc(NC(=O)Nc2cccc3c2O[C@H](CN(C)Cc2ccc(-c4ccccc4)cc2)[C@@H](C)CN([C@H](C)CO)C3=O)cc1`, the cytotoxicity call in the test on HSkMC and in the test with HepG2 was “inactive” each time. Moreover, the growth inhibition call in the test on S. aureus RN4220 is “inactive”.

With `O=C(C[C@H]1C[C@@H]2c3cc(NC(=O)c4ccc5c(c4)OCO5)ccc3O[C@@H]2[C@H](CO)O1)NCc1ccccn1`, the cytotoxicity call in the test with HSkMC and in the test with HepG2 was “inactive” in each case. Also, the growth inhibition call in the test on S. aureus RN4220 was “inactive”.

As for `CC(C)NC(=O)Nc1ccc2c(c1)C(=O)N([C@H](C)CO)C[C@@H](C)[C@H](CN(C)S(=O)(=O)c1ccc(F)cc1)O2`, the cytotoxicity call with HSkMC and with HepG2 was “inactive” throughout. In addition, the growth inhibition call in the test on S. aureus RN4220 is “inactive”.

As to `C[C@H]1CN([C@@H](C)CO)C(=O)Cc2cc(NC(=O)Cn3cnnn3)ccc2O[C@@H]1CN(C)CC1CCCCC1`, the cytotoxicity call in the test on HSkMC and in the test with HepG2 was “inactive” each time. The growth inhibition call with S. aureus RN4220 is “inactive”.

Turning to `COCC(=O)Nc1ccc2c(c1)OC[C@@H](C)N(C(=O)c1ccccc1F)C[C@H](C)[C@H](OC)CN(C)C2=O`, the cytotoxicity call in the test on HSkMC and with HepG2 was “inactive” each time. In addition, the growth inhibition call in the test with S. aureus RN4220 is “inactive”.

`COc1c(O[C@@H]2O[C@H](CO)[C@@H](O)[C@H](O)[C@H]2O)cc2c(c1OC)-c1ccc(SC)c(=O)cc1[C@@H](NC(C)=O)CC2`: the cytotoxicity call in the test with HSkMC and in the test with HepG2 was “inactive” in each case. In addition, the growth inhibition call in the test on S. aureus RN4220 was “inactive”.

For the compound `C[C@@H]1CN([C@@H](C)CO)S(=O)(=O)c2ccc(C#Cc3ccncc3)cc2O[C@H]1CN(C)S(=O)(=O)c1ccccc1`, the cytotoxicity call in the test with HSkMC was “inactive”. Moreover, in the test with HepG2, the cytotoxicity call was “active”. For the same compound, the growth inhibition call with S. aureus RN4220 was “inactive”.

For the compound `Cc1ccc(S(=O)(=O)Nc2ccc3c(c2)C(=O)N([C@@H](C)CO)C[C@H](C)[C@@H](CN(C)C(=O)CCC(F)(F)F)OCCCC[C@@H](C)O3)cc1`, the cytotoxicity call in the test with HSkMC and in the test with HepG2 was “inactive” throughout. For the same compound, in the test on S. aureus RN4220, the growth inhibition call was “inactive”.

Consider `C[C@H](CO)N1C[C@H](C)[C@H](CN(C)Cc2ccc3c(c2)OCO3)OCCCC[C@H](C)Oc2ccc(NC(=O)Nc3ccc(C(F)(F)F)cc3)cc2C1=O`, for which the cytotoxicity call in the test with HSkMC and in the test on HepG2 was “active” throughout. In the test with S. aureus RN4220, the growth inhibition call was “inactive”.

Consider `CCCNC(=O)C[C@H]1CC[C@H]2[C@H](COc3ccc(NS(=O)(=O)c4ccccc4C)cc3C(=O)N2C)O1`, for which the cytotoxicity call in the test with HSkMC and in the test with HepG2 was “inactive” in each case. Further, in the test with S. aureus RN4220, the growth inhibition call was “inactive”.

As to `C[C@@H]1CN([C@@H](C)CO)C(=O)c2cc(NC(=O)Nc3ccc4c(c3)OCO4)ccc2O[C@@H](C)CCCCO[C@H]1CN(C)Cc1ccccc1`, the cytotoxicity call with HSkMC and with HepG2 was “inactive” each time. Moreover, the growth inhibition call in the test with S. aureus RN4220 is “inactive”.

On to `O=C(CN1CCOCC1)N[C@H]1CC[C@@H](CCNS(=O)(=O)c2ccccc2F)O[C@@H]1CO`, for which the cytotoxicity call with HSkMC and with HepG2 was “inactive” throughout. Also, in the test with S. aureus RN4220, the growth inhibition call is “inactive”.

In the case of `Cc1noc(C)c1NC(=O)N[C@@H]1CC[C@H](CC(=O)N2CCN(C)CC2)O[C@H]1CO`, the cytotoxicity call in the test on HSkMC and in the test with HepG2 was “inactive” in each case. Moreover, in the test on S. aureus RN4220, the growth inhibition call was “inactive”.

As to `C[C@H](CO)N1C[C@H](C)[C@@H](CN(C)C(=O)c2cccnc2)Oc2cc(C#CC3(O)CCCC3)ccc2S1(=O)=O`, the cytotoxicity call with HSkMC and in the test with HepG2 was “inactive” throughout. Further, the growth inhibition call in the test on S. aureus RN4220 is “inactive”.

For the compound `CN[C@@H]1[C@@H](O)[C@@H](O[C@@H]2[C@@H](O)[C@H](O[C@H]3OC(CN)=CC[C@H]3N)[C@@H](N)C[C@H]2N)OC[C@]1(C)O`, the cytotoxicity call in the test on HSkMC and with HepG2 was “inactive” each time. Besides, in the test with S. aureus RN4220, the growth inhibition call is “inactive”.

Turning to `C[C@@H]1CN([C@H](C)CO)C(=O)c2cc(NC(=O)C3CC3)ccc2O[C@H]1CN(C)S(=O)(=O)c1ccc(Cl)cc1`, the cytotoxicity call in the test with HSkMC and in the test on HepG2 was “inactive” in each case. Besides, the growth inhibition call with S. aureus RN4220 was “inactive”.

Consider `C[C@@H]1CCCCO[C@H](CN(C)S(=O)(=O)c2ccc(F)cc2)[C@@H](C)CN([C@@H](C)CO)C(=O)c2cc(NC(=O)Nc3ccc(C(F)(F)F)cc3)ccc2O1`, for which the cytotoxicity call in the test on HSkMC and in the test with HepG2 was “inactive” each time. The growth inhibition call in the test on S. aureus RN4220 is “inactive”.

In the case of `COc1cc(CO)c(CC(=O)NN)cc1OC`, the cytotoxicity call in the test on HSkMC and with HepG2 was “inactive” each time. The growth inhibition call with S. aureus RN4220 is “inactive”.

As for `CNC[C@H]1Oc2ccc(NC(=O)Cn3cnnn3)cc2C(=O)N([C@H](C)CO)C[C@H]1C`, the cytotoxicity call in the test on HSkMC and in the test with HepG2 was “inactive” each time. Besides, in the test with S. aureus RN4220, the growth inhibition call was “inactive”.

Consider `C[C@@H]1CN([C@@H](C)CO)C(=O)c2cc(NS(=O)(=O)c3cn(C)cn3)ccc2O[C@H]1CN(C)Cc1ccc(C(=O)Nc2ccccc2N)cc1`, for which the cytotoxicity call in the test on HSkMC and with HepG2 was “inactive” throughout. The growth inhibition call in the test on S. aureus RN4220 was “inactive”.

In the case of `O=C(C[C@@H]1CC[C@@H]2[C@H](COC[C@H](O)CN2S(=O)(=O)c2cccc(Cl)c2)O1)NC1Cc2ccccc2C1`, the cytotoxicity call with HSkMC and in the test with HepG2 was “inactive” each time. For the same compound, the growth inhibition call with S. aureus RN4220 is “inactive”.

With `C[C@H](CO)N1C[C@H](C)[C@H](CN(C)Cc2ccc(F)cc2)OCc2ccccc2-c2c(n(C)c3ccccc23)C1=O`, the cytotoxicity call in the test on HSkMC (human skeletal muscle cells) and in the test on HepG2 was “inactive” throughout. The growth inhibition call with S. aureus RN4220 is “inactive”.

As to `Cc1noc(C)c1NC(=O)Nc1ccc2c(c1)CC(=O)N([C@@H](C)CO)C[C@@H](C)[C@@H](CN(C)C(=O)Nc1cccc3ccccc13)O2`, the cytotoxicity call with HSkMC and in the test with HepG2 was “inactive” in each case. Also, in the test with S. aureus RN4220, the growth inhibition call is “inactive”.

In the case of `Cc1noc(C)c1S(=O)(=O)Nc1ccc2c(c1)C(=O)N([C@H](C)CO)C[C@H](C)[C@@H](CN(C)Cc1ccc(Oc3ccccc3)cc1)O2`, the cytotoxicity call with HSkMC and with HepG2 was “inactive” each time. The growth inhibition call in the test with S. aureus RN4220 was “inactive”.
